Our source for the self-cleavage values is the RNAGym collection of RNA variant scans (doi:10.7554/elife.90254).

The chains are these.
B1: LINE1-mini (parent)
chain: GGCAGAGCUCAACACAGCGUGGCAAAGUGGCUGUGGCUAGACUGCC

Read counts are not given, so values of variants with three or more changes are uncertain.

The data set covers variants of B1. Description: self-cleavage, relative activity (ratio to wild type); higher = more cleavage; in vitro, sequencing; the parent is a self-cleaving ribozyme.
G2A A4U G29A G33U A41G: the self-cleavage was 0.66. With G2A C13A C42A the figure was 0.17; with G2A C3G A4G, 0.21. With G2A C3U A16U G19C U28G G36U the figure was 0.25; with G2A A16U A24U, 0.17; with G2A A11G G21U G29U G40U, 0.01.

For G2A C13U G21U G33A U38C A41G C42U, the self-cleavage was determined as 0.16. With G2A A6G G19U G36C the figure was 0.16. With G2A C13U G17U the figure was 0.24; with G2A C3A G5C C10U A11C C23U G36A, 0.06.

For G2A C15A G33U, the self-cleavage was found to be 0.32.

As for G2A C13G G29C G40U, the self-cleavage worked out at 0.05. As to G2A C13U G19A C42U, the self-cleavage was 0.39. Under G2A A16G C18A G22C A25C G29U G33U U43C stands 0.06.

Regarding G2A A14G G17U U43C, the self-cleavage worked out at 0.11.

With G2A A12G A16G C23G, the self-cleavage amounted to 0.03. Under G2A C18A C23U stands 0.24; under G2A C13G A16U U28C C37U, 0.49; under G2A C10U C13A G22U G36U, 0.12. With G2A C18G U28G G44A the figure was 0.12; with G2A A6G G21C, 0.15. With G2A C3U G19A C23U A26U G29U C37A the figure was 0.94. For the variant G2A C13A G30A, the self-cleavage stood at 0.53.

As to G2A C13A C15G U20A, the self-cleavage came to 0.04. Under G2A A26C C42A U43C stands 0.44; under G2A C8A G33U U43C, 0.31. With G2A A24C U28C the figure was 0.7. For the variant G2A A14U C45U, the self-cleavage stood at 2.05. Regarding G2A A12C G29A G36U, the self-cleavage amounted to 0.02. With G2A C15A G22U A25U U28G A41C the figure was 0.04. With G2A A11U G36C the figure was 0.03; with G2A C13A C18U, 0.24; with G2A C3G U9A, 1.37. Under G2A C8A C42U stands 0.26; under G2A A25U A39G C42U C45A, 0.25.

On to G2A C10G A24U U34C C42G, for which the self-cleavage is 0.02. Under G2A C8A G35A stands 0.5. With G2A C10G G21A G30C C31U the figure was 0.02; with G2A C3G G29U, 0.94; with G2A C3G G29A, 0.06. Under G2A C10U C13G A14U A16C stands 0.04; under G2A A6C C8U A16G, 0.06; under G2A A11G A12C C13A G33C, 0.01.

As to G2A C8U A39C, the self-cleavage is 0.18. With G2A C10A U20C C42U the figure was 0.02; with G2A C3U A26G C45A, 0.1; with G2A C10G G35U C46A, 0.03. Under G2A A6U C13A G30C C37G stands 0.06. Consider G2A C3G A11C, for which the self-cleavage was 0.11. Take G2A A16G U20A G27U: the self-cleavage was 0.1. Under G2A A6C G29A C37G A41U C45A stands 0.31. With G2A C3G C8U C18A G19U the figure was 1.21. G2A C10U G27U U32G: the self-cleavage came out at 0.05. Under G2A C13G A16C C18U G22A A24U C37A U38A C46U stands 0.06; under G2A A26U G30A C42U, 0; under G2A C10A G21A G44U, 0.23. Under G2A A12U G27U G40C stands 0.14; under G2A A14C U32C G36C, 0.28; under G2A C10U G36U G40C, 0.04. With G2A C10U G30C the figure was 0.08. As to G2A C8A U20A C45A, the self-cleavage worked out at 0.42. With G2A C18G G22U the figure was 0.81; with G2A C10U A14G, 0.07. With G2A C3G C23A A25C G27U the figure was 0.51; with G2A A11C C42G, 0; with G2A A11U C45A, 0.04. Under G2A C18A A25C stands 0.36; under G2A A6C A12C G33C G36A, 0.01. G2A A12G G29U C31U: the self-cleavage was 0.31.

Regarding G2A A14U G30U G40U, the self-cleavage was 0.02. With G2A C13U U32G the figure was 0.12; with G2A C3G C46G, 0.15; with G2A C18U G21C A24U G30A, 1.04. Under G2A A16C U38C stands 0.18. Turning to G2A C15G C31U C37G U38G, the self-cleavage amounted to 0.01. With G2A C10G G27U G44U, the self-cleavage stood at 0.17.

Take G2A C13A C23A A25G A26U: the self-cleavage stood at 0.25.

In the case of G2A A14G G19C G33C G44C, the self-cleavage was determined as 0.01. For the variant G2A C15U G19A G27U G35C C42U, the self-cleavage was 0.05.

With G2A A6C C10G G19C U43C, the self-cleavage came to 0.02. Under G2A C3U A16U C18U G27C G35C stands 0.62; under G2A C10A C23U U32G, 0.02; under G2A A11U C37A C46U, 0. Regarding G2A C10A A26U G40U, the self-cleavage was 0.03.

Turning to G2A A6G G22C C42U, the self-cleavage was found to be 0.03. Under G2A C8A G21U C31U stands 0.31; under G2A C18G G29U, 0.07.

Turning to G2A A12U C15A G35C C46U, the self-cleavage is 0.06. Under G2A C23A A41C stands 0.07; under G2A C23G G27C G30U C37G, 0.01; under G2A A14U U20A G44U, 0.23. Take G2A A4G G21U: the self-cleavage stood at 0.29. Under G2A C3A A4G A6U stands 0.15; under G2A C13U G35A U38A, 0.89; under G2A A14G C31G G35C G44A, 0.08.

G2A C18U C23A A26U: the self-cleavage was found to be 0.07.

As for G2A A6U C8A U32A C37G G40U C42U G44U, the self-cleavage stood at 0.22. With G2A C10U U20A G29U C46G the figure was 0.35; with G2A C23G C31A, 0.12; with G2A A12U A16C C37A, 0.16. Under G2A C8U A26C G30A stands 0.71; under G2A C18U C23U G27U C31U, 0.03; under G2A A11C U34C, 0.06. On to G2A C8U U32A C37U, for which the self-cleavage was determined as 0.29. With G2A A11G U28C G35U the figure was 0.04; with G2A A12G C15A G40A, 0.02. With G2A C10G G19U C23U G33U the figure was 0.04; with G2A C3A C8U C42A, 0.62.

Turning to G2A C18U G19A G30A, the self-cleavage was determined as 2.45.

As to G2A A25G U38A, the self-cleavage amounted to 0.15. With G2A C13U G19U G22U the figure was 0.42; with G2A C3G U9G C31U U38A G40U, 0.06.

On to G2A A6C C15U C23U C37U A41G, for which the self-cleavage came to 0.09. With G2A C10U C13U U32C G35U C42A the figure was 0.06. Under G2A C3U A12G stands 0.22. Under G2A C13A A39C stands 0.25; under G2A C8A G29U U34A C37U G44A, 0.15. Take G2A A12U C15G C31U: the self-cleavage came out at 0.07. With G2A A25G G36A U38C the figure was 0.06; with G2A A11U G44U, 0.12. Consider G2A C23A U34A, for which the self-cleavage stood at 0.19. For G2A A6U G33A, the self-cleavage turned out to be 0.11. Take G2A A14C C15U: the self-cleavage is 0.04. Under G2A C13U C31G stands 0.13. Under G2A C3U G7A C10U C13G stands 0.44; under G2A A11C G19A G30U, 0.12. On to G2A A6G G27U, for which the self-cleavage amounted to 0.28. Under G2A A6C C10A A24C stands 0.04. Under G2A C13U U28G U32C stands 0.08. Under G2A C3A U9C C10U G21A C37G stands 0.28. On to G2A C8U U43A, for which the self-cleavage was found to be 0.18.

With G2A C18A U28C C45U, the self-cleavage stood at 0.66. Turning to G2A C18A C31A, the self-cleavage stood at 0.05.

Regarding G2A C3A U20A G21U A25C U32A, the self-cleavage turned out to be 0.15. On to G2A C3U C8U G19A G22U C42U C46A, for which the self-cleavage turned out to be 1.57. As to G2A C18G C23A, the self-cleavage amounted to 0.95.

Consider G2A C8A G19A, for which the self-cleavage came to 0.33.

For G2A A26U U34C G36A C46U, the self-cleavage amounted to 0.07. Under G2A C8A C15G A24G C31G stands 0.04; under G2A A39C G40U G44U, 0.09; under G2A A12C C13U, 0.03. For G2A A16U A25U, the self-cleavage is 0.31. Turning to G2A C18A C31A C37A C46G, the self-cleavage came out at 0.08. On to G2A C15A U28G, for which the self-cleavage was found to be 0.12.

As for G2A C3U G33A U38A C46U, the self-cleavage was 0.4. Under G2A A11U A26G A41U stands 0.05; under G2A A14G C18U G22C A24U G35A U38G, 0.37; under G2A A12U G22U, 0.2. Under G2A C13G U20G stands 0.15; under G2A A25U A26G U34C, 0.17. With G2A C15G G29U the figure was 0.04.

As for G2A A4U A6G C23A G27A C45G, the self-cleavage came to 0.04. Under G2A A12C A25U stands 0.16. Under G2A A25C G40U A41C stands 0.17; under G2A A11C G19U, 0.03. With G2A C23U A24U G30U the figure was 0.21. G2A A12U C13A C23U: the self-cleavage was 0.52. With G2A C10A A14U C18A the figure was 0.04. Under G2A A11G C31G G36C stands 0.03; under G2A A6G C46U, 2.12.

With G2A C8A G44C, the self-cleavage was 0.69. With G2A A26U G27U C42U the figure was 0; with G2A C15G A24U A41C, 0.01.

Turning to G2A C3U C10A G19C U38A, the self-cleavage turned out to be 0.03. Under G2A A14G C15G C23U A25C stands 0.02. Regarding G2A A12U C45U, the self-cleavage was 0.62. With G2A C8U C18A C37G C42G the figure was 0.07.
